# The supplement of paper PMC8728848
# Some of the results follow.
# Legend:
# Test in all cases: glycan array binding signal (z-score within array); higher = stronger binding
# Settings in all cases: glycan notation: IUPAC condensed, linker removed
# [1] = target: Gal(b1-4)GlcNAc(b1-2)Man(a1-3)[Gal(b1-4)GlcNAc(b1-2)Man(a1-6)]Man(b1-4)GlcNAc(b1-4)[Fuc(a1-6)]GlcNAc
# Outline: (§1)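 From the Consortium for Functional Glycomics database, 3228 arrays were curated, keeping only those whose protein sequence was available. Binding is given as a within-array Z-score averaged across arrays sharing a protein sequence and across linkers. Negative Z-scores can be read as non-binding.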
# [2] = target: Gal(b1-4)GlcNAc(b1-2)Man(a1-3)[Gal(b1-4)GlcNAc(b1-2)Man(a1-6)][Gal(b1-4)GlcNAc(b1-4)]Man(b1-4)GlcNAc(b1-4)[Fuc(a1-6)]GlcNAc
# Outline: as §1
# [3] = target: Gal(b1-4)GlcNAc(b1-2)Man(a1-3)[Gal(b1-4)GlcNAc(b1-2)Man(a1-6)][GlcNAc(b1-4)]Man(b1-4)GlcNAc(b1-4)[Fuc(a1-6)]GlcNAc
# Outline: as §1
# [4] = target: Gal(b1-4)GlcNAc(b1-2)Man(a1-3)[GlcNAc(b1-2)Man(a1-6)]Man(b1-4)GlcNAc(b1-4)GlcNAc
# Outline: as §1
# [5] = target: Gal(b1-4)GlcNAc(b1-2)Man(a1-3)[GlcNAc(b1-4)][Gal(b1-4)GlcNAc(b1-2)Man(a1-6)]Man(b1-4)GlcNAc(b1-4)GlcNAc
# Outline: as §1
# [6] = target: Gal(b1-4)GlcNAc(b1-2)Man(a1-3)[Man(a1-6)]Man(b1-4)GlcNAc(b1-4)GlcNAc
# Outline: as §1
# [7] = target: Gal(b1-4)GlcNAc(b1-2)Man(a1-6)Man(b1-4)GlcNAc(b1-4)GlcNAc
# Outline: as §1
# [8] = target: Gal(b1-4)GlcNAc(b1-2)Man(a1-6)[GlcNAc(b1-2)Man(a1-3)]Man(b1-4)GlcNAc(b1-4)GlcNAc
# Outline: as §1
# [9] = target: Gal(b1-4)GlcNAc(b1-2)Man(a1-6)[Man(a1-3)]Man(b1-4)GlcNAc(b1-4)GlcNAc
# Outline: as §1
# [10] = target: Gal(b1-4)GlcNAc(b1-2)[Gal(b1-4)GlcNAc(b1-4)]Man(a1-3)[Gal(b1-4)GlcNAc(b1-2)Man(a1-6)]Man(b1-4)GlcNAc(b1-4)GlcNAc
# Outline: as §1
# [11] = target: Gal(b1-4)GlcNAc(b1-2)[Gal(b1-4)GlcNAc(b1-4)]Man(a1-3)[Gal(b1-4)GlcNAc(b1-2)[Gal(b1-4)GlcNAc(b1-6)]Man(a1-6)]Man(b1-4)GlcNAc(b1-4)GlcNAc
# Outline: as §1
# [12] = target: Gal(b1-4)GlcNAc(b1-2)[Gal(b1-4)GlcNAc(b1-4)]Man(a1-3)[GlcNAc(b1-4)][Gal(b1-4)GlcNAc(b1-2)Man(a1-6)]Man(b1-4)GlcNAc(b1-4)GlcNAc
# Outline: as §1
# [13] = target: Gal(b1-4)GlcNAc(b1-2)[Gal(b1-4)GlcNAc(b1-4)]Man(a1-3)[GlcNAc(b1-4)][Gal(b1-4)GlcNAc(b1-2)[Gal(b1-4)GlcNAc(b1-6)]Man(a1-6)]Man(b1-4)GlcNAc(b1-4)GlcNAc
# Outline: as §1
# [14] = target: Gal(b1-4)GlcNAc(b1-2)[Gal(b1-4)GlcNAc(b1-6)]Man(a1-6)[Gal(b1-4)GlcNAc(b1-2)Man(a1-3)]Man(b1-4)GlcNAc(b1-4)GlcNAc
# Outline: as §1
# [15] = target: Gal(b1-4)GlcNAc(b1-2)[Gal(b1-4)GlcNAc(b1-6)]Man(a1-6)[Gal(b1-4)GlcNAc(b1-2)Man(a1-3)]Man(b1-4)GlcNAc(b1-4)[Fuc(a1-6)]GlcNAc
# Outline: as §1
# [16] = target: Gal(b1-4)GlcNAc(b1-2)[Gal(b1-4)GlcNAc(b1-6)]Man(a1-6)[GlcNAc(b1-4)][Gal(b1-4)GlcNAc(b1-2)Man(a1-3)]Man(b1-4)GlcNAc(b1-4)GlcNAc
# Outline: as §1
# [17] = target: Gal(b1-4)GlcNAc(b1-2)[Gal(b1-4)GlcNAc(b1-6)]Man(a1-6)[GlcNAc(b1-4)][Gal(b1-4)GlcNAc(b1-2)[Gal(b1-4)GlcNAc(b1-4)]Man(a1-3)]Man(b1-4)GlcNAc(b1-4)[Fuc(a1-6)]GlcNAc
# Outline: as §1
# [18] = target: Gal(b1-4)GlcNAc(b1-3)Gal(b1-3)GalNAc
# Outline: as §1
binder,measurement,setting,value
"MGL1 (Mus musculus), P49300 (protein) MIYENLQNSRIEEKTQEPGKAPSQSFLWRILSWTHLLLFSLGLSLLLLVVVSVIGSQNSQLRRDLGTLRATLDNTTSKIKAEFQSLDSRADSFEKGISSLKVDVEDHRQELQAGRDLSQKVTSLESTVEKREQALKTDLSDLTDHVQQLRKDLKALTCQLANLKNNGSEVACCPLHWTEHEGSCYWFSESEKSWPEADKYCRLENSHLVVVNSLEEQNFLQNRLANVVSWIGLTDQNGPWRWVDGTDFEKGFKNWAPLQPDNWFGHGLGGGEDCAHITTGGPWNDDVCQRTFRWICEMKLAKES",glycan array binding signal (z-score),[1],0.099
same,glycan array binding signal (z-score),[2],3.48
same,glycan array binding signal (z-score),[3],-0.015
same,glycan array binding signal (z-score),[4],-0.652
same,glycan array binding signal (z-score),[5],0.239
same,glycan array binding signal (z-score),[6],0.201
same,glycan array binding signal (z-score),[7],-0.551
same,glycan array binding signal (z-score),[8],-0.37
same,glycan array binding signal (z-score),[9],-0.449
same,glycan array binding signal (z-score),[10],-0.595
same,glycan array binding signal (z-score),[11],-0.108
same,glycan array binding signal (z-score),[12],-0.482
same,glycan array binding signal (z-score),[13],1.53
same,glycan array binding signal (z-score),[14],0.768
same,glycan array binding signal (z-score),[15],0.123
same,glycan array binding signal (z-score),[16],-0.006
same,glycan array binding signal (z-score),[17],-0.144
same,glycan array binding signal (z-score),[18],-0.176
